Assay results taken from publication PMC12136788.
Some of the results follow.

T1: UNK ZnF1-3 (human, UniProt Q9C0B0 31-174)
T1 sequence: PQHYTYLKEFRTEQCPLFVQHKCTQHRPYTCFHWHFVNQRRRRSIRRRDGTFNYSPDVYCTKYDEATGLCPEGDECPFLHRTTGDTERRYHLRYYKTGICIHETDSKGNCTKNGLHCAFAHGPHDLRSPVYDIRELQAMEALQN

B1: chr8:95500983:95500984:-_ENSG00000164944_ENST00000437199|hu_hu|hu_hu_hu_mus_True|18_68 (ssRNA)
RNA: GGGAGUUCUACAGUCCGACGAUCAGAACACAUCUAUCGAGUAAAGGACCGUACAUGACGGCCUCUAACCACUGCCUCACUAACAAACUUUCCUCUCGAGCCUCCACUGCCGCUAUUUUGCACUAGCCAGGACGGUCCCAGGCCCAACAGAGGAUUGAGCAUCA
B2: chr14:89338683:89338684:+_ENSG00000165533_ENST00000346301|hu_hu|hu_hu_hu_mus_False|48_48 (ssRNA)
RNA: GGGAGUUCUACAGUCCGACGAUCGUGGUUGUUGUGGACCAGGGCCAGCCUGAAGCAUUGGUGGGCCAAGUUUGUAUCUCCGAUUCCCACAGCUACAUGCCCCAGGUUGUACCAGACAUCAGCUGCCUCUUCUUCAUUUUCAGCCAACAGAGGAUUGAGCAUCA
B3: 100006237_100006726_2590_CDS_ENSG00000158417_ENST00000289371|human|control|control (ssRNA)
RNA: GGGAGUUCUACAGUCCGACGAUCAGUGCGGGGAUCUUUAUUCUCAUAAAACAAAGCAGCAUUCAAACCCUGCUGUGCAAAUUCUACAAUAAUAGCCUUUGCUCGCUCCUCAAAUUCAUCUUUUGUAUUCUUUUUCUGCUUCUUCAACAGAGGAUUGAGCAUCA
B4: chr8:59494266:59494267:+_ENSG00000137575_ENST00000447182|hu_hu|FALSE|FALSE (ssRNA)
RNA: GGGAGUUCUACAGUCCGACGAUCUACAUUUCCAUGGUGCCGUGAAUUUUAAACCUCAGGAAUGGUGUGGUCCAUUAGGCUUUUCAUAAUGCUUGGUGCCAUCCGCUUAAUAAUAUGUUCAAAGAUAAAAGCAGGCAUGAUUGUCAACAGAGGAUUGAGCAUCA
B5: chr9:56909451:56909452:+_ENSMUSG00000032290_ENSMUST00000034832|mus_hu|motif|central (ssRNA)
RNA: GGGAGUUCUACAGUCCGACGAUCCAUAAGUGCACACACACACACACACAGAAUGACAGAAAGGACUGGAAUACACGCCCGGCUUAUAAACGUGCUUGGCACUCAGGACGAUCUCUAGAAUAUGUAACUUGGUCAAGCUCUCUGCAACAGAGGAUUGAGCAUCA
B6: chr4:88366173:88366174:-_ENSMUSG00000070923_ENSMUST00000094993|mus_hu|FALSE|FALSE (ssRNA)
RNA: GGGAGUUCUACAGUCCGACGAUCUGGAAAAACUGUGAGUGUACAGGCUCGAAUGCCACCAAGUGACUCUGGAAGAUCAAAAACUUUAUGCCACUCAUCUUUUUCUGGGUCAUAUUUCUGGACAAUUUCUACCAUACAACGAUUCAACAGAGGAUUGAGCAUCA
B7: 51514752_51517885_3253_CDS_ENSMUSG00000036391_ENSMUST00000109097|mouse|control|control (ssRNA)
RNA: GGGAGUUCUACAGUCCGACGAUCGUUGAGAGCUCCCUCAUCUGAGAGGUUGUCAACUCUGUACAAACUGGGAUGUGUUGUGAGCAUGAGGUGAACCAAUGGCUGGCUUUUCACUUGACACAUGGCAAAAAUUCGUUCAUCUAGCAACAGAGGAUUGAGCAUCA
B8: chr20:57485947:57485948:+_ENSG00000087460_ENST00000306090|hu_mus|motif|central (ssRNA)
RNA: GGGAGUUCUACAGUCCGACGAUCGGGGUUUUUCAGAAUCACUGGGGGAAAAAGGAAAGGUUGCGGUGUUGAUCAUGCCCGGUGGUGGGUGACCAACUGCUUGUACAAUUACGUUUCACUCUUAAUUAAUUGUGCUUAAGGCUGCAACAGAGGAUUGAGCAUCA
B9: chr8:104447970:104447971:+_ENSG00000164934_ENST00000297579|hu_hu|hu_hu_hu_mus_False|68_88 (ssRNA)
RNA: GGGAGUUCUACAGUCCGACGAUCAUACACUUCCCUGCUUCGGCUCUUGUCUACAGGAAAGAUUCUAAUAGAUUUAUCAAAGCUGGCAGACACAAAUUCCUUCCCAGUGGGAGAGUAGUCCACAUCAAGUACUGCAGACACGUGCAACAGAGGAUUGAGCAUCA
B10: chr12:98991669:98991670:+_ENSG00000075415_ENST00000552981|hu_hu|FALSE|FALSE (ssRNA)
RNA: GGGAGUUCUACAGUCCGACGAUCGAAUCCGUUAAAUAUGCCCUUGUACUUUUGGGGGUCCACCUGCAUACGGCAUUUCACUAAAUCCAGGGGAACCACAGCAGUGUGUGUCAGACCACAACUUAAGACCCCACCAAAGCCACACAACAGAGGAUUGAGCAUCA
B11: chr19:8913615:8913616:-_ENSMUSG00000071658_ENSMUST00000096259|mus_hu|mus_mus_mus_hu_False|58_88 (ssRNA)
RNA: GGGAGUUCUACAGUCCGACGAUCAGGGUACCAAAACCUUCUGCCUGAGAUAGGUGCCCCACCCAGUAGGGAGUUGCAGCUAAAAAUAUCUGAUGCAGAAGCAGUGACUAUACGAAAGGAGGCCCCUGGGGAGGGCCAGGCCAGCAACAGAGGAUUGAGCAUCA
B12: chr2:9570881:9570882:+_ENSG00000119203_ENST00000238112|hu_mus|hu_hu_hu_mus_False|8_48 (ssRNA)
RNA: GGGAGUUCUACAGUCCGACGAUCACUUGUCUUCUGAAGGAACCAGGGCAGGGCUCCACAGUGAUCCAAAUGGAAAUGACUGAUCAAUAGGAGAUCAAUCUCAGCUGGGUCGAUAAGGUCAAUGUAAGGAAGAGCAUCCAUUCCCAACAGAGGAUUGAGCAUCA
B13: 87797516_87810895_2362_CDS_ENSG00000008277_ENST00000398209|human|control|control (ssRNA)
RNA: GGGAGUUCUACAGUCCGACGAUCCCCAUUUUCACAGAUGUCUGAAAUAUGUUUUGUGUCUGGAAUCCUUUCACUCCAAGAAUGAGAGAGCCCAUUUGACCUCUGUUCUCGAUAGUUUUUAUAACCCCACGCAGUUAUUCCUAACAACAGAGGAUUGAGCAUCA
B14: 3061171_3062207_408_CDS_ENSG00000104964_ENST00000327141|human|control|control (ssRNA)
RNA: GGGAGUUCUACAGUCCGACGAUCUUGCAGUAGCUGAAAUUCGUCUUUGAUGCGGUCGCAGGAGUCCGAGGUGGUGAAUUUGAGUUGCUGGGGUAGGUGCGAGGAGCCCGAAUGCCUGCUUUGUGGAAACAUCAUGUCAAUCGCCAACAGAGGAUUGAGCAUCA
B15: chr16:94690093:94690094:+_ENSMUSG00000040785_ENSMUST00000117648|mus_hu|mus_mus_mus_hu_True|18_18 (ssRNA)
RNA: GGGAGUUCUACAGUCCGACGAUCGGGCUGGGAUGACGGACACACAGCCUCGAUUCCAGGGGGAAAAAGUCUUAGUCGAUACUAAUUAAAAAGUGUUAAUGAUUUUUGAAAAUCAGAUGUAGAUUAAAAAAGAUGAAAAGCAAACAACAGAGGAUUGAGCAUCA
B16: chr3:9412954:9412955:+_ENSG00000134077_ENST00000452837|hu_mus|hu_hu_hu_mus_False|8_58 (ssRNA)
RNA: GGGAGUUCUACAGUCCGACGAUCGGUUGAUAUCUCUUCUUUGAUGGCUGGAUUUUCAUAAUAGUCCAAGAUAUGUGAAUCUAAAGCGCUGCUGGCAUGCUUUUUCUUACCAUCUUUCUCAUCUGCUUUGACUUCUUGUCCACACAACAGAGGAUUGAGCAUCA
B17: chr17:60770872:60770873:+_ENSG00000011028_ENST00000303375|hu_hu|hu_hu_hu_mus_True|48_98 (ssRNA)
RNA: GGGAGUUCUACAGUCCGACGAUCUCUUUAAAAAAAAUUCCUUUUUUACAAACAAUAAUAGCACAUUUCGAGAAUCAAGAACUACAAAGAAAGGGCCGCUUUGAGUUUUUGUUCACAUCGUCCUGCACUGGGACACGGGGACUGCAACAGAGGAUUGAGCAUCA
B18: chr10:80587187:80587188:+_ENSMUSG00000035027_ENSMUST00000143517|mus_mus|FALSE|FALSE (ssRNA)
RNA: GGGAGUUCUACAGUCCGACGAUCGUGCAAGAGCAGCCAGCAGUGUGGUGGACGGCACCUGCUUGGACAACCUGGCUGGAGCAUGUGAAGCCCCACAUGGUGGCUUCCUUGGGGCAUCUGAAAAAGGAAUACUUUUGUCAUCCCCAACAGAGGAUUGAGCAUCA
B19: 128107968_128108088_1263_CDS_ENSMUSG00000049858_ENSMUST00000054764|mouse|control|control (ssRNA)
RNA: GGGAGUUCUACAGUCCGACGAUCAAAGUUUACCGUGUCCCAGUCCACAGAUGGAGAAAAGCCUUUGUAAUCCCGCCUCUGCCAGUGACUAUAACUCUCCUCUGAUUCCACACUCACUCUGCCGAGCCAUUUGACAUGACGGGCCAACAGAGGAUUGAGCAUCA
B20: chr2:198351390:198351391:-_ENSG00000144381_ENST00000345042|hu_hu|hu_hu_hu_mus_False|88_88 (ssRNA)
RNA: GGGAGUUCUACAGUCCGACGAUCUCAUUCCCACCCUCCACAGAAAGGCUGCUUAACAACUCUCAUGUGGUGACACAGCGCUACAGUCCUGAUGCUCACAGAACAGUAGAGAUGCCUCAGUGAUUUAAGUUGAAAGCAGGACACCAACAGAGGAUUGAGCAUCA
B21: chr5:134143580:134143581:+_ENSG00000145833_ENST00000354283|hu_hu|motif|central (ssRNA)
RNA: GGGAGUUCUACAGUCCGACGAUCUCCUGCUCUUCCAGUCCGCCCUGCUCUGUGUACAUAAUCCUCAUAAUGGUUGGGGCAGCGGUAAUUUACUACAAGAAUCAGAUGUUUCACAUCUAGACCUCGGGCAGCAACAGAGGUAGCCAACAGAGGAUUGAGCAUCA
B22: 25101282_25103994_528_CDS_ENSMUSG00000001833_ENSMUST00000165594|mouse|control|control (ssRNA)
RNA: GGGAGUUCUACAGUCCGACGAUCAAUUUCUUUCAUUAUCUGCUUUUUAAACUGUUGGCAUUCCUCUGGUGUAAGUGUGUCUGCUUUGGCAAUUAAUGGGAUGAUAUUCACUUUUUCAUGCAAACGUUUCAUAAACUCAAUGUCCAACAGAGGAUUGAGCAUCA

target: T1, UNK ZnF1-3; test: nsRBNS (natural sequence RNA bind-n-seq); RBNS binding buffer (assumed for nsRBNS): 25 mM Tris pH 7.5, 150 mM KCl, 3 mM MgCl2, 0.01% Triton X-100, 500 ug/ml BSA, 20 U/ml SUPERase-In, 4 C; UNK is unkempt and MSI1 is Musashi-1; names of the RNAs are library labels; protein concentration not given here; high values mean tight binding

With B1 as the binder, how does the binding signal read?
Its binding signal is 1.12 enrichment R.

How did the binding signal turn out when B2 was run?
The binding signal was 0.678 enrichment R.

B3 was tested. Which binding signal did it give?
The binding signal was 0.991 enrichment R.

B4 was tested. Which binding signal did it give?
The binding signal was 1.24 enrichment R.

For B5, which binding signal is on record?
The binding signal was 1.4 enrichment R.

Which binding signal does the source give for B6 here?
The binding signal was 0.999 enrichment R.

B7 was tested. Which binding signal did it give?
Its binding signal is 0.841 enrichment R.

With B8 as the binder, how does the binding signal read?
The binding signal was 1.09 enrichment R.

Which binding signal does the source give for B9 here?
The binding signal was 1.1 enrichment R.

How did the binding signal turn out when B10 was run?
Its binding signal is 1.05 enrichment R.

How did the binding signal turn out when B11 was run?
The binding signal was 1.69 enrichment R.

Which binding signal does the source give for B12 here?
Its binding signal is 1.1 enrichment R.

How did the binding signal turn out when B13 was run?
Its binding signal is 0.814 enrichment R.

B14 was tested. Which binding signal did it give?
Its binding signal is 1.19 enrichment R.

With B15 as the binder, how does the binding signal read?
The binding signal was 2.36 enrichment R.

How did the binding signal turn out when B16 was run?
Its binding signal is 0.306 enrichment R.

With B17 as the binder, how does the binding signal read?
The binding signal was 1.65 enrichment R.

How did the binding signal turn out when B18 was run?
Its binding signal is 1.37 enrichment R.

B19 was tested. Which binding signal did it give?
Its binding signal is 1.12 enrichment R.

How did the binding signal turn out when B20 was run?
Its binding signal is 1.14 enrichment R.

For B21, which binding signal is on record?
The binding signal was 1.88 enrichment R.

For B22, which binding signal is on record?
The binding signal was 0.567 enrichment R.
